Data as given in the antibiotic and cytotoxicity screens of Wong et al. (2023).
The other results are listed elsewhere or left out.

These compounds were tested on S. aureus RN4220 (assay: growth inhibition call (relative growth <= 0.2)). Conditions: 50 µM.

Growth inhibition call, inactive:
C[C@@H]1CCCCO[C@@H](CN(C)Cc2ccccc2)[C@H](C)CN([C@@H](C)CO)C(=O)c2cc(NC(=O)c3ccccc3)ccc2O1
C[C@@H]1CN([C@H](C)CO)C(=O)Cc2cc(NS(C)(=O)=O)ccc2O[C@@H]1CN(C)Cc1ccc(C(=O)Nc2ccccc2N)cc1
C[C@H]1CN([C@@H](C)CO)S(=O)(=O)c2ccc(Br)cc2O[C@@H]1CN(C)CC1CCOCC1
COc1ccc([Si](C)(C)[C@@H]2[C@@H](CCO)O[C@]3(C(=O)N(Cc4cccc(N5CCCCC5=O)c4)c4ccccc43)[C@H]2C)cc1
C[C@@H]1CN([C@H](C)CO)C(=O)c2cc(C#CCN(C)C)cnc2O[C@@H]1CN(C)C(=O)CN1CCOCC1
COc1ccc(NC(=O)N(C)C[C@@H]2OCCCC[C@H](C)Oc3ccc(NS(=O)(=O)c4ccc(Cl)cc4)cc3C(=O)N([C@H](C)CO)C[C@H]2C)cc1
C[C@@H]1CCCCO[C@@H](CN(C)S(=O)(=O)c2ccc(F)cc2)[C@@H](C)CN([C@@H](C)CO)C(=O)c2cc(NC(=O)CCC(F)(F)F)ccc2O1
C[C@@H]1CN([C@H](C)CO)C(=O)Cc2cc(NC(=O)CCCCCC(=O)Nc3ccccc3N)ccc2O[C@H]1CN(C)S(=O)(=O)c1cn(C)cn1
COc1ccc(S(=O)(=O)N[C@H]2C=C[C@H](CC(=O)N3CCC(Cc4ccccc4)CC3)O[C@H]2CO)cc1
C[C@@H]1CCCCO[C@@H](CN(C)Cc2ccc3c(c2)OCO3)[C@@H](C)CN([C@H](C)CO)C(=O)c2cc(NC(=O)CCCCCC(=O)Nc3ccccc3N)ccc2O1
CCOC(=O)[C@H](N)/C=C(\C)CP(=O)(O)O
C[C@@H]1CCCCO[C@@H](CN(C)Cc2ccccc2)[C@@H](C)CN([C@@H](C)CO)C(=O)c2cc(NS(=O)(=O)c3cccs3)ccc2O1
CNC(=O)Cn1c(=O)c2c(OC)ccnc2n(C)c1=O
O=C(C[C@@H]1CC[C@@H]2[C@H](COC[C@H](O)CN2C(=O)c2ccc3c(c2)OCO3)O1)NC1Cc2ccccc2C1
COc1ccc(NC(=O)Nc2cccc3c2O[C@H](CN(C)S(C)(=O)=O)[C@H](C)CN([C@@H](C)CO)C3=O)cc1
Cc1ccc(OC(=O)N(C)C[C@@H]2OCc3ccccc3-c3ccccc3C(=O)N([C@H](C)CO)C[C@H]2C)cc1
C[C@H](CO)N1C[C@H](C)[C@H](CN(C)C(=O)c2ccccc2)OCCCC[C@H](C)Oc2ccc(NS(=O)(=O)c3ccc(Cl)cc3)cc2C1=O
O=[N+]([O-])c1cccc2c1nnn2[C@H](CO)OCCO
O=C(CN1CCOCC1)N[C@@H]1CC[C@H](CCn2cc(C3CCCC3)nn2)O[C@H]1CO
C[C@@H]1CN([C@H](C)CO)C(=O)c2cccc(NC(=O)C3CC3)c2O[C@@H]1CN(C)Cc1ccc(Oc2ccccc2)cc1
C[C@@H]1CN([C@@H](C)CO)C(=O)c2cc(NC(=O)CCC(F)(F)F)ccc2O[C@H]1CN(C)Cc1ccc(C(=O)Nc2ccccc2N)cc1
COc1ccc(COC[C@]23Oc4ccccc4[C@H]([C@H]2CO[Si](C)(C)C(C)(C)C)N(C(=O)CC(C)=O)C(=O)N3C)cc1
C[C@@H]1CN([C@@H](C)CO)C(=O)c2cc(NS(=O)(=O)c3cn(C)cn3)ccc2O[C@@H]1CN(C)S(=O)(=O)c1cn(C)cn1
C[C@@H]1CN([C@@H](C)CO)C(=O)Cc2cc(NC(=O)CCC(F)(F)F)ccc2O[C@H]1CN(C)C(=O)Nc1cccc2ccccc12
CCNC(=O)C[C@@H]1C=C[C@H](NC(=O)C2CC2)[C@@H](CO)O1
C[C@H](CO)N1C[C@H](C)[C@H](CN(C)S(=O)(=O)c2ccccc2)Oc2ccc(NS(=O)(=O)c3cccs3)cc2CC1=O
C[C@@H]1CCCCO[C@H](CN(C)CC2CCCCC2)[C@H](C)CN([C@@H](C)CO)C(=O)c2cc(NC(=O)NC3CCCCC3)ccc2O1
Nc1ccc(C(=O)[O-])cc1.[K+]
CC(C)NC(=O)N(C)C[C@@H]1OCc2cn(nn2)CCCC(=O)N([C@H](C)CO)C[C@@H]1C
O=C(c1cnn2c1OCCC2)N1CC(O)C1
COCCN1C(=O)C[C@@H]2[C@@H]1CCN2C(=O)c1csnn1
Cc1ccc(S(=O)(=O)N(C)C[C@@H]2OCCCC[C@@H](C)Oc3ccc(NS(C)(=O)=O)cc3C(=O)N([C@H](C)CO)C[C@@H]2C)cc1
CNC[C@@H]1OCCCC[C@@H](C)Oc2ccc(NS(=O)(=O)c3cn(C)cn3)cc2C(=O)N([C@@H](C)CO)C[C@H]1C
COc1cc(C=CC(N)=O)cc(OC)c1OC
Oc1ccc2c(c1)OCC1(O)Cc3cc(O)c(O)cc3C21 (stereo not given)
C[C@H](CO)N1C[C@H](C)[C@H](CN(C)Cc2ccc(C(=O)O)cc2)Oc2ccc(NC(=O)c3ccncc3)cc2C1=O
C[C@@H]1CCCCO[C@@H](CN(C)C(=O)Nc2ccc(C(F)(F)F)cc2)[C@H](C)CN([C@@H](C)CO)C(=O)c2cc(NC(=O)C3CCCCC3)ccc2O1
C[C@H]1CCCCO[C@@H](CN(C)C(=O)C2CCCCC2)[C@@H](C)CN([C@@H](C)CO)C(=O)c2cc(NC(=O)c3ccccc3)ccc2O1
C[C@@H]1CCCCO[C@@H](CN(C)C(=O)Nc2ccc(C(F)(F)F)cc2)[C@@H](C)CN([C@@H](C)CO)C(=O)c2cc(NC(=O)C3CCCCC3)ccc2O1
C[C@@H]1CN([C@H](C)CO)S(=O)(=O)c2ccc(-c3cccc(C#N)c3)cc2O[C@@H]1CN(C)C(=O)c1ccncc1
